Among all 48,000 compounds or so, about 450 (0.94%) were called active. Not shown: some 19% with an inconclusive outcome. Calls follow the shape of the dose curve; as a rule, active = well fitted inhibition curve with a large enough effect; inconclusive = small, poorly fitted or top-dose-only effect; inactive = no such curve, though single readings can be large or run the other way. This is one part of the list.
experiment: Primary qHTS for Identification of Small Molecule Inhibitors of Huntingtin Promoter Activity; conditions: HEK293 HTT promoter firefly luciferase reporter (activity 0% = vehicle and -100% = no light), 24 h; series mostly up to 57.5 µM; activity change, negative = inhibition: at the top concentration; also: nearly all actives have a fitted effect of over 50% in size
Method in brief: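 Firefly luciferase readout (Dual-Glo, 10 min RT) after 24 h, 37 °C compound exposure (final up to 57.5 uM) of HEK293 reporter cells cultured 24 h beforehand; PTC124 at 50 uM final as control inhibitor; activity scaled vehicle 0%, zero RLU -100%.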
Potency is read from the fitted curve at half-maximal effect.

SMILES | activity change, negative = inhibition | Potency
Cc1ccc(S(=O)(=O)Nc2nc3n(n2)C(c2ccc(F)cc2)C=C(c2ccccc2)N3)cc1 (stereo not given) | inactive: -8.71% | 
CC1=C(C(=O)Nc2ccc(Cl)cc2)C(CC(C)C)n2nc(SCc3ccccc3C)nc2N1 (stereo not given) | inactive: -12.9% | 
COc1ccccc1CNS(=O)(=O)c1cnc(N)nc1 | inactive: -4.85% | 
O=C(NCC(c1ccco1)S(=O)(=O)c1cccs1)c1ccccc1F (stereo not given) | inactive: 33.2% | 
COc1cccc(CNc2cc(C)nc3nc(-c4ccc(C)cc4)nn23)c1 | inactive: -6.31% | 
Cc1ccc(N2CC(C)Cn3c2nc2c3c(=O)n(Cc3cccc(Cl)c3)c(=O)n2C)cc1 (stereo not given) | inactive: -2.77% | 
CCCc1cc(=O)[nH]c2nnc(SCC)n12 | inactive: -5.37% | 
O=c1oc2ccc3ccccc3c2cc1-c1nnc(Nc2ccc(F)cc2)s1 | inactive: -2.84% | 
O[C@@H](c1cc(C(F)(F)F)nc2c(C(F)(F)F)cccc12)[C@H]1CCCCN1 | inactive: -27.8% | 
Cc1ccc(-n2nc3c(=O)n(C(C)C(=O)NCc4ccco4)nc(C)c3c2C)cc1 (stereo not given) | inactive: -25% | 
NS(=O)(=O)c1cc2c(cc1C(F)(F)F)NC(Cc1ccccc1)NS2(=O)=O (stereo not given) | inactive: 9.05% | 
O=C(NC1(C(F)(F)F)NC(=O)N(CCc2ccccc2)C1=O)c1ccc(Cl)cc1 (stereo not given) | inactive: -26.3% | 
COC(=O)CC1Oc2ccc(Cl)cc2-n2cc(-c3ccccc3)nc21 (stereo not given) | inactive: -12.7% | 
Oc1c(C(c2ccccc2)N2CCC(O)CC2)sc2nc(-c3ccco3)nn12 (stereo not given) | inactive: -8.15% | 
CCCCOc1cccc(C(=O)N(Cc2ccc(C)o2)c2ccccn2)c1 |  | active: 28.2 µM
Cc1ccc(C)c(NC(=O)c2ccc(CN3CC(=O)N4CCCCC4C3=O)cc2)c1 (stereo not given) | inactive: -25.8% | 
CC(=O)Nc1ccc(NC(=O)c2ccc3c(c2)N(Cc2cccc(Cl)c2)C(=O)c2ccccc2S3(=O)=O)cc1 | inactive: -22.3% | 
CCOC(=O)C(C)Sc1ccc2nnc(CCNS(=O)(=O)c3ccccc3)n2n1 (stereo not given) | inactive: -2.57% | 
CCn1c(CN2CCCCC2)nc2cc(NC(=O)c3cc(OC)c(OC)c(OC)c3)ccc21 | inactive: -15.7% | 
CC1N=C2c3ccccc3N=C(SCC(=O)NCCc3ccccc3)N2C1=O (stereo not given) | inactive: -22.4% | 

SMILES | activity change, negative = inhibition | Potency
CN(Cc1ccccc1)C(=O)c1nc(-c2ccc(Cl)cc2)n2c1CCCCC2 | inactive: -22% | 
COc1cccc(N2CCN(C(=O)CCCCCn3c(=O)[nH]c4ccccc4c3=O)CC2)c1 | inactive: -17.5% | 
CC1CCn2c(nc3cc(C(=O)NCc4ccc(OC(C)C)cc4)ccc32)C1 (stereo not given) | inactive: 45.2% | 
CCC(C(=O)NC1CCC(C)CC1)n1nc(C)c2sc3ccccc3c2c1=O (stereo not given) | inactive: 44.5% | 
CC(C)c1ccc(NC(=O)CSc2nc3ccccc3nc2Cc2ccccc2)cc1 | inactive: -8.63% | 
COc1ccccc1CNC(=O)C1CCN(S(=O)(=O)c2ccc3c(c2)CCCN3C(C)=O)CC1 | inactive: -19.4% | 
CN(C)CCNC(=O)C(=O)NCC(c1cccnc1)N1CCN(c2ccc(F)cc2)CC1 (stereo not given) | inactive: -1.78% | 
CCOc1ccccc1NC(=O)Cn1nnc(C(=O)NCc2ccc(F)cc2)c1N | inactive: -12.9% | 
Cc1ccc(S(=O)(=O)N(C)Cc2nc(-c3ccccc3)oc2C)cc1 | inactive: 0% | 
CCc1nc2nc(C)c(NS(=O)(=O)c3ccc(C)cc3)c(=O)n2[nH]1 | inactive: -6.64% | 
COc1ccc(-c2c(C)nn3c(C(F)(F)F)cc(-c4ccccc4)nc23)cc1 | inactive: 1.95% | 
COc1ccc(OC)c(NC(=O)c2cc(C3CC3)nc3c2c(C)nn3-c2ccc(C)cc2)c1 | inactive: -13.2% | 
Cc1cc(C)cc(NC(=O)Cc2c(C(=O)O)c(C)cn2C)c1 | inactive: -6.97% | 
O=C(Cn1cc(SCc2ccccc2F)c2ccccc21)N1CCCCC1 | inactive: 14.5% | 
O=C(NCc1ccco1)c1ccc2c(c1)N(Cc1c(F)cccc1Cl)C(=O)c1ccccc1S2 | inactive: -22.6% | 
CCCCCCCCCCCCCCCCC(C(=O)O)C(O)(CC(=O)O)C(=O)O (stereo not given) | inactive: 11.5% | 
CC(=O)c1cccc(NC(=O)C2CCN(S(=O)(=O)c3ccc4[nH]c(=O)ccc4c3)CC2)c1 | inactive: -2.56% | 
Cc1ccc(CNC(=O)C2CCN(Cc3nc(-c4cccc(Br)c4)oc3C)CC2)cc1 | inactive: -1.89% | 
CCOc1ccc(-n2c(=O)c3c4c(sc3n(CC(=O)NC(C)CC)c2=O)CCCC4)cc1 (stereo not given) | inactive: 6.02% | 
Cc1cccc(-n2c(=O)c3ccccc3n(Cc3ccccc3)c2=O)c1 | inactive: -24.3% | 

SMILES | activity change, negative = inhibition | Potency
Cc1ccc(-n2nc3ccc(NC(=O)COc4ccccc4)cc3n2)cc1Cl | inactive: 1.85% | 
CCc1cc2c(cc(C(=O)OC)n2Cc2nc(-c3ccc(C)cc3)oc2C)s1 | inactive: -6.02% | 
O=C(CSc1nc2c([nH]c3ccccc32)c(=O)n1-c1cccc(C(F)(F)F)c1)N1CCc2ccccc21 | inactive: -7.07% | 
O=C(O)c1ccc(CNCc2ccccc2Cl)s1 | inactive: -11.1% | 
CCc1ccc(C(=O)N2CCC(c3nc(-c4ccc(S(=O)(=O)N5CCCC5)cc4)no3)CC2)cc1 | inactive: -12.5% | 
O=S(=O)(c1ccc(Br)cc1)c1nnn2c1nc(NCc1ccc3c(c1)OCO3)c1sccc12 | inactive: 1.81% | 
COc1cc(Cl)c(C)cc1NC(=O)Cn1ncc2c1-c1cc(C)ccc1OC2 | inactive: -16.5% | 
CCCSc1ncc(Cl)c(C(=O)Nc2c(C(=O)Nc3ccc(OC)cc3)oc3ccccc23)n1 | inactive: -15.1% | 
CCCOc1ccc(CNC(=O)CCCn2nc(C)c3sc4ccccc4c3c2=O)cc1 | inactive: -10.3% | 
Cc1ccc(CNC(=O)CCCCCn2c(=O)c3sccc3n(CC(=O)Nc3c(C)cc(C)cc3C)c2=O)cc1 | inactive: -25.9% | 
CC1CCCN(Cc2nc3c(c(=O)n(C)c(=O)n3C)n2Cc2ccc(Cl)cc2)C1 (stereo not given) | inactive: -4.64% | 
O=C(Nc1cc(Cl)ccc1Cl)c1cc2nc(-c3ccc4c(c3)OCO4)cc(C(F)(F)F)n2n1 | inactive: -3.54% | 
Cn1nc(C(=O)NCc2ccccc2Cl)c2c1-c1ccccc1S(=O)(=O)C2 | inactive: -28.1% | 
CSc1ccc(CNC(=O)C2CCN(c3nc4ccccc4nc3C(F)(F)F)CC2)cc1 | inactive: -4.18% | 
Cc1cc(C)c(S(=O)(=O)N2CCC(N3CCN(Cc4ccccc4)C(=O)C3=O)CC2)c(C)c1 | inactive: -16.3% | 
COc1ccc2c(c1)c1c(c(=O)n(-c3ccccc3C)c(=O)n1C)n2C | inactive: -4.08% | 
COc1ccc(-n2ncc(C(=O)N3CCN(c4cc(C)ccc4C)CC3)c2C2CCN(C(=O)OC(C)(C)C)CC2)cc1 | inactive: 2.47% | 
COc1ccc(CNCc2c(C(=O)O)c(C)n(Cc3ccccc3C)c2C)c(OC)c1 | inactive: -15.6% | 
CCN(CC)CCNC(=O)c1cn(CCOC)c(=O)c2c1c1ccccc1n2C | inactive: -8.04% | 
CCCCNC(=O)C1CCN(c2nc3ccccc3nc2C(F)(F)F)CC1 | inactive: -22.2% | 

Source: PubChem BioAssay AID1508623 (National Center for Advancing Translational Sciences (NCATS), 2021)
